Assay results published in PubChem BioAssay AID1030 (National Center for Advancing Translational Sciences (NCATS), 2008).
Hit rate of the full screen: of about 220,000 compounds, about 16,000 (7.3%) were called active. This list was built around the results that the source calls inconclusive (neither active nor inactive); the mix of calls is not that of the screen. The call rests on the fitted dose curve; in most records, active means well fitted inhibition curve with a large enough effect (not every such curve was filed as active); inconclusive means small, poorly fitted or top-dose-only effect, or another doubt; inactive means no such curve, though single readings can be large or run the other way. Potencies of inconclusive entries are left out as doubtful fits.

biological target: Aldehyde dehydrogenase 1A1 (Homo sapiens) (UniProt P00352); test: qHTS Assay for Inhibitors of Aldehyde Dehydrogenase 1 (ALDH1A1); conditions: Purified ALDH1A1, NADH fluorescence, propionaldehyde substrate; series mostly up to 75.3 µM; activity, negative = inhibition: at the top concentration;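 on activity, negative = inhibition: plate controls were no enzyme wells and a reference inhibitor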
Chain of UniProt P00352 (P00352 whole entry, looked up): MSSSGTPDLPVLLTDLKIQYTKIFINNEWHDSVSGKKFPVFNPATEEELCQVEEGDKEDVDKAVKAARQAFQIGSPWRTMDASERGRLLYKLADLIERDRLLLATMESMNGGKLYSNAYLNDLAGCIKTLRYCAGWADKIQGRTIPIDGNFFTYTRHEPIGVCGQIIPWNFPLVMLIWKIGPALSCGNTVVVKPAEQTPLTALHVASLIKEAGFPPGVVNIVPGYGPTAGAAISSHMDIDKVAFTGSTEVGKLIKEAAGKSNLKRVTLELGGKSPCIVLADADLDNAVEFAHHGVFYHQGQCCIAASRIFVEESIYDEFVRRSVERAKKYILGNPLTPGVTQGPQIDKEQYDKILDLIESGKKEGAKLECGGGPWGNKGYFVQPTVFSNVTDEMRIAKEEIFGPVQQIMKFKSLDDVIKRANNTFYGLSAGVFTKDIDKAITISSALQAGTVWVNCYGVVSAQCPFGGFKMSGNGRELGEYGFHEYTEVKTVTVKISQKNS
Potency means the concentration at half of the fitted maximal effect; tags describe the fitted curve by direction and shape.

| Structure (SMILES) | Potency | activity, negative = inhibition |
| --- | --- | --- |
| COc1ccc(-n2cnc3cc(C(=O)NC4CCCC4)ccc32)cc1 | inconclusive [inhibitor, single point] |  |
| CCNc1c(C(=O)O)ccc2c1C(=O)c1ccccc1C2=O |  | inactive: 0.986% |
| O=c1c(-c2cccs2)nc2cncnc2n1-c1ccccc1 | inconclusive [inhibitor, partial curve] |  |
| COc1ccc(-c2cn3cccnc3n2)cc1NC(=O)c1ccc(Br)o1 | inconclusive [inhibitor, partial curve] |  |
| COC(=O)C1CCN(C(=O)COC(=O)Cn2cnnn2)CC1 | inconclusive [inhibitor, single point] |  |
| Nc1cc(=O)nc(SCc2ccccc2)n1Cc1ccco1 |  | inactive: 12.6% |
| Cc1ccc(NC(=O)c2oc3ccccc3c2NC(=O)c2ccc3c(c2)OCO3)cc1 | inconclusive [inhibitor, single point] |  |
| Cc1cc(C(=O)N/N=C/c2ccc3c(c2)OCO3)c(C)n1-c1ccc(F)cc1 | inconclusive [inhibitor, single point] |  |
| CCOC(=O)/C=C/C(=O)N1CCc2ccccc21 | inconclusive [inhibitor, single point] |  |
| CCOC(=O)c1cc(-c2ccc(Cl)cc2)nc2onc(C)c12 | inconclusive [inhibitor, partial curve] |  |
| CN(C)c1nc(Oc2ccc(=O)n(-c3ccccc3)n2)nc(N2CCOCC2)n1 |  | inactive: -0.0512% |
| CCC1CCCCN1S(=O)(=O)c1ccc(S(=O)(=O)N(Cc2cccs2)C2CC2)cc1 (stereo not drawn) | inconclusive [inhibitor, single point] |  |
| CCOC(=O)N1CCN(C(c2ccc(F)cc2)c2sc3nc(C)nn3c2O)CC1 (stereo not drawn) |  | inactive: -2.76% |
| Cc1ccc(NC(=S)NNC(=O)c2nn(C)c(C)c2Cl)cc1 | inconclusive [inhibitor, single point] |  |
| CC(C)C(=O)Nc1ccc(C(=O)c2ccccc2)cc1 | inconclusive [inhibitor, single point] |  |
| O=C(c1ccco1)N1CCN(C(=O)C2Cc3ccccc3CN2S(=O)(=O)c2ccc(F)cc2)CC1 (stereo not drawn) | inconclusive [inhibitor, single point] |  |
| O=C(O)C1CC(=O)N(c2ccc3c(c2)OCCO3)C1 (stereo not drawn) |  | inactive: 6.77% |
| O=C(Nc1ccc(F)cc1)c1ccccc1CC[N+](=O)[O-] | inconclusive [inhibitor, single point] |  |
| O=c1c2ccccc2nc(N/N=C/c2ccc(O)cc2)n1O | active: 10 µM |  |
| COC(=O)CSc1ncnc2c1cnn2-c1ccc(C)cc1C | inconclusive [inhibitor, single point] |  |
| COc1ccccc1C(=O)NN1C(=O)C2C3C=CC(O3)C2C1=O (stereo not drawn) | active: 20 µM |  |
| CO/N=C\C(=N\Nc1ccc(OC)cc1)C(=O)c1ccccc1 | inconclusive [inhibitor, partial curve] |  |
| CN(Cc1ccccc1)C(=O)CCS(=O)(=O)c1ccc2c(c1)n(C)c(=O)c(=O)n2C | inconclusive [inhibitor, single point] |  |
| Cc1ccc(NC(=O)C2CCCN2S(=O)(=O)c2cccc3cccnc23)cc1F (stereo not drawn) | inconclusive [inhibitor, partial curve] |  |
| N#Cc1cccc(N=Cc2c(O)ccc3ccccc23)c1 | inconclusive [inhibitor, partial curve] |  |

| Structure (SMILES) | Potency | activity, negative = inhibition |
| --- | --- | --- |
| O=C(NC1CCC(c2ccccc2)CC1)c1cccnc1 (stereo not drawn) | inconclusive [inhibitor, partial curve] |  |
| O=S(=O)(c1ccccc1)N(CC(F)(F)F)c1ccc(C(O)(C(F)(F)F)C(F)(F)F)cc1 |  | inactive: 16.6% |
| Cn1c(SCC(=O)c2ccccc2)nnc1-c1cccnc1 | inconclusive [inhibitor, full curve] |  |
| CC(NC(=O)C1CCC(C(C)(C)C)CC1)C(c1ccccc1)N1CCOCC1 (stereo not drawn) | inconclusive [inhibitor, partial curve] |  |
| COc1ccc(C(C)C)cc1S(=O)(=O)Nc1ccccn1 | inconclusive [inhibitor, partial curve] |  |
| O=S1(=O)C=CC(N2CCOCC2)C1 (stereo not drawn) |  | inactive: 2.76% |
| O=C(Nc1ccccc1)N1CCN(c2ccccn2)CC1 | inconclusive [inhibitor, single point] |  |
| COCCN1CN=C(Nc2nc3ccccc3s2)NC1 |  | inactive: 10.3% |
| CCOc1ccc(-n2nnnc2SCC(=O)N2CCOCC2)cc1 |  | inactive: -2.33% |
| CCOC(=O)c1ccccc1NC(=O)CSc1nnnn1C1CCCCC1 | active: 3.55 µM |  |
| CC1=C(C)CS(=O)N(S(=O)(=O)c2ccccc2)C1 (stereo not drawn) | inconclusive [inhibitor, single point] |  |
| CCCCn1nc(C(=O)Nc2nc3c(s2)CCCC3)c2ccccc2c1=O | inconclusive [inhibitor, partial curve] |  |
| Cc1cccc(N(C(=O)c2snc(C(N)=O)c2N)C(C)C(=O)NCC2CCCO2)c1 (stereo not drawn) | inconclusive [inhibitor, single point] |  |
| Clc1cccc(N/N=C(\Cc2nc3ccccc3[nH]2)c2ccccc2)c1 | inconclusive [inhibitor, single point] |  |
| C=CCSc1cc(C)nc2c(-c3ccc(Cl)cc3)c(C)nn12 | inconclusive [inhibitor, single point] |  |
| Cn1ccnc1SCC(=O)Nc1cc(C(F)(F)F)ccc1N1CCOCC1 | inconclusive [inhibitor, partial curve] |  |
| CCN1CCN(CCCNC(=O)c2ccc(/C=C3/Sc4ccccc4N(Cc4ccccc4F)C3=O)cc2)CC1 | inconclusive [inhibitor, single point] |  |
| C1=C(CCNc2ncnc3nc[nH]c23)CCCC1 | inconclusive [inhibitor, single point] |  |
| Cc1occc(=O)c1O | inactive |  |
| CC(C)C(=O)Nc1ccc(NC(=O)c2ccccc2Cl)nc1 | inconclusive [inhibitor, full curve, poor fit] |  |
| CC(C)N1CCC(N2CCN(C/C=C/c3ccccc3)CC2CCO)CC1 (stereo not drawn) |  | inactive: 0.0559% |
| CC1=CC(C)(C)N(C(=O)CSc2nnc(C)s2)c2ccc(C)cc21 | inconclusive [inhibitor, single point] |  |
| CCCC[C@@H]1CN2[C@H](c3ccc(Br)cc3)[C@H](C)CC[C@H]2C(=O)O1 |  | inactive: -2.33% [at 13.5 µM] |
| COc1cccc(NS(=O)(=O)c2ccc3c(c2)CCCN3C(C)=O)c1 | inconclusive [inhibitor, full curve] |  |
| Cc1cccc(-c2nnc(SCC(=O)Nc3ncccn3)n2C)c1 |  | inactive: -5.75% |

| Structure (SMILES) | Potency | activity, negative = inhibition |
| --- | --- | --- |
| COc1cc2c(cc1OC)CN(c1nc(CN3CCCCC3)nc3sc4c(c13)CCCC4)CC2 | inconclusive [inhibitor, single point] |  |
| CS/C(=C\[N+](=O)[O-])Nc1ccccc1 | inconclusive [inhibitor, partial curve] |  |
| FC(F)(F)c1nc2nncn2c2c1CCCCC2 | inconclusive [inhibitor, partial curve] |  |
| CCc1nc(OCC(=O)c2ccccc2)c(C#N)c2c1COC(C)(C)C2 | active: 6.31 µM |  |
| CSc1nc(Sc2ccccc2Cl)c2ccccc2n1 |  | inactive: -5.27% |
| CN(C)c1ccc(C2C=C(c3ccc(Cl)cc3OC(F)F)Nc3ncnn32)cc1 (stereo not drawn) | active: 20 µM |  |
| CCN(C(C)=O)c1ccc(Oc2nc(OC)cc(OC)n2)cc1 |  | inactive: -6.19% |
| S=C(NCC1CCCO1)N1CCN(c2nc(-c3ccccc3)cs2)CC1 (stereo not drawn) | inconclusive [inhibitor, single point] |  |
| CCn1c(C(=O)Nc2ccsc2C(=O)OC)cc2sc(Cl)cc21 | inconclusive [inhibitor, partial curve] |  |
| C[N+](C)(CCCCCC[N+](C)(C)CCCN1C(=O)c2cccc3cccc(c23)C1=O)CCCN1C(=O)c2cccc3cccc(c23)C1=O | inconclusive [inhibitor, partial curve] |  |
| NS(=O)(=O)c1ccc(NCc2nc3ccccc3[nH]2)cc1 |  | inactive: 0.158% [at 13.5 µM] |
| COc1cccc(C=NC=Nc2cccc(OC)c2)c1 |  | inactive: -4.43% |
| Nc1cc(C(=O)OCC(=O)NCc2ccco2)ccc1Cl | inconclusive [inhibitor, single point] |  |
| CCCn1c(NCc2cccc(OC)c2O)nc2ccccc21 | active: 6.31 µM |  |
| CN(C)S(=O)(=O)c1cccc(NC(=O)COC(=O)COc2ccccc2[N+](=O)[O-])c1 | inconclusive [inhibitor, single point] |  |
| Cc1ccnc(NC(NC(=O)C(C)C)(C(F)(F)F)C(F)(F)F)c1 |  | inactive: -0.488% |
| O=C(CSc1nnnn1-c1ccccc1)Nc1ccc(Cl)cc1 | inconclusive [inhibitor, partial curve] |  |
| C(=N\Nc1nc2ccccc2[nH]1)/c1ccncc1 |  | inactive: -3.92% |
| Cc1cc(C)nc(-n2nc(C)cc2NC(=O)CNC2CCCCC2)n1 | inconclusive [inhibitor, single point] |  |
| COc1ccc(-c2c(C)nn(-c3ccccc3)c2N)cc1OC |  | inactive: 8.1% |
| COC(=O)c1ccc(SCC(=O)N2CCC(C)CC2)c([N+](=O)[O-])c1 | inconclusive [inhibitor, single point] |  |
| Cc1ccc(C(=O)COC(=O)CN2C(=O)C3C4CCC(C4)C3C2=O)cc1[N+](=O)[O-] (stereo not drawn) | active: 20 µM |  |
| O=C(Nc1ccc(Cl)cn1)c1ccc(-c2cc(Cl)ccc2Cl)o1 | active: 17.8 µM |  |
